This is one part of the list.

The chains are these.
B1: Q9UKT9 (peptide)
chain: FTCPICGHAFTQKGNLLRHIKL
B2: Q9UKT9 (peptide)
chain: LCCEICGFWCTQKGNLLRHIKL
B3: Q9UKT9 (peptide)
chain: LKCEICGFGCTQKGNLLRHIKL
B4: Q9UKT9 (peptide)
chain: FSCPICGRWFTQKGNLLRHIKL
B5: Q9UKT9 (peptide)
chain: FQCNICGAVFTQKGNLLRHIKL
B6: Q9UKT9 (peptide)
chain: LCCPICGFYCTQKGNLLRHIKL
B7: Q9UKT9 (peptide)
chain: FGCNICGATFTQKGNLLRHIKL
B8: Q9UKT9 (peptide)
chain: FWCNQCGRNFTQKGNLLRHIKL
B9: Q9UKT9 (peptide)
chain: FACNICGALFTQKGNLLRHIKL
B10: Q9UKT9 (peptide)
chain: LSCPICGFQCTQKGNLLRHIKL
B11: Q9UKT9 (peptide)
chain: FCCNICGARFTQKGNLLRHIKL
B12: Q9UKT9 (peptide)
chain: FTCPQCGAPFTQKGNLLRHIKL
B13: Q9UKT9 (peptide)
chain: FDCDICGAHFTQKGNLLRHIKL
B14: Q9UKT9 (peptide)
chain: FLCDQCGAPFTQKGNLLRHIKL
B15: Q9UKT9 (peptide)
chain: FACPICGRIFTQKGNLLRHIKL
B16: Q9UKT9 (peptide)
chain: FMCEVCGAHFTQKGNLLRHIKL
B17: Q9UKT9 (peptide)
chain: FSCNQCGRMFTQKGNLLRHIKL
B18: Q9UKT9 (peptide)
chain: FNCNQCGRDFTQKGNLLRHIKL
B19: Q9UKT9 (peptide)
chain: FWCEICGATFTQKGNLLRHIKL
B20: Q9UKT9 (peptide)
chain: FVCDVCGAPFTQKGNLLRHIKL
B21: Q9UKT9 (peptide)
chain: FMCDQCGAWFTQKGNLLRHIKL
B22: Q9UKT9 (peptide)
chain: FECPICGAFFTQKGNLLRHIKL
B23: Q9UKT9 (peptide)
chain: FDCEICGAHFTQKGNLLRHIKL
B24: Q9UKT9 (peptide)
chain: FDCPICGRKFTQKGNLLRHIKL
B25: Q9UKT9 (peptide)
chain: FRCPVCGAKFTQKGNLLRHIKL
B26: Q9UKT9 (peptide)
chain: FFCNQCGRQFTQKGNLLRHIKL
B27: Q9UKT9 (peptide)
chain: FCCNVCGAIFTQKGNLLRHIKL
B28: Q9UKT9 (peptide)
chain: FDCPICGRQFTQKGNLLRHIKL
B29: Q9UKT9 (peptide)
chain: FYCPICGAGFTQKGNLLRHIKL
B30: Q9UKT9 (peptide)
chain: FMCEVCGASFTQKGNLLRHIKL
B31: Q9UKT9 (peptide)
chain: FWCEICGHAFTQKGNLLRHIKL
B32: Q9UKT9 (peptide)
chain: FHCPVCGAAFTQKGNLLRHIKL
B33: Q9UKT9 (peptide)
chain: FVCNICGAIFTQKGNLLRHIKL
B34: Q9UKT9 (peptide)
chain: FDCNQCGAHFTQKGNLLRHIKL
B35: Q9UKT9 (peptide)
chain: FFCNQCGHEFTQKGNLLRHIKL
B36: Q9UKT9 (peptide)
chain: FVCNICGASFTQKGNLLRHIKL
B37: Q9UKT9 (peptide)
chain: FYCNICGADFTQKGNLLRHIKL
B38: Q9UKT9 (peptide)
chain: FNCNQCGRWFTQKGNLLRHIKL
B39: Q9UKT9 (peptide)
chain: LKCPICGFWCTQKGNLLRHIKL
B40: Q9UKT9 (peptide)
chain: LRCNQCGFQCTQKGNLLRHIKL
B41: Q9UKT9 (peptide)
chain: FTCPQCGAVFTQKGNLLRHIKL
B42: Q9UKT9 (peptide)
chain: FRCPICGRGFTQKGNLLRHIKL
B43: Q9UKT9 (peptide)
chain: FTCDVCGACFTQKGNLLRHIKL
B44: Q9UKT9 (peptide)
chain: LACNQCGFYCTQKGNLLRHIKL
B45: Q9UKT9 (peptide)
chain: LYCNQCGFLCTQKGNLLRHIKL
B46: Q9UKT9 (peptide)
chain: FICNVCGAMFTQKGNLLRHIKL
B47: Q9UKT9 (peptide)
chain: FNCEICGAWFTQKGNLLRHIKL
B48: Q9UKT9 (peptide)
chain: FDCPQCGAMFTQKGNLLRHIKL
B49: Q9UKT9 (peptide)
chain: FCCNVCGARFTQKGNLLRHIKL
B50: Q9UKT9 (peptide)
chain: LVCEICGFNCTQKGNLLRHIKL
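Also: jurkat cells carrying a lentiviral library of mutant zinc finger degrons fused to EGFP plus mCherry, mCherry+ cells FACS sorted, degron abundance counted by next-generation sequencing.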

The target in this assay is no compound (DMSO). The assay is described as follows: log2 fold change of degron read counts, EGFP-low vs EGFP+ sorted cells; higher = lower degron-EGFP level without compound (poor expression or instability). The conditions noted are these: compound: DMSO control; 18 h.
Turning to B1, the “log2 fold change of degron read counts” value is -0.62.

For the sequence B2, the “log2 fold change of degron read counts” value worked out at 0.929.

In the case of B3, the “log2 fold change of degron read counts” value is -0.223.

Regarding B4, the “log2 fold change of degron read counts” value was determined as 0.603.

Take B5: the “log2 fold change of degron read counts” value was -0.6.

On to B6, for which the “log2 fold change of degron read counts” value worked out at 1.46.

For the sequence B7, the “log2 fold change of degron read counts” value is -0.466.

Turning to B8, the “log2 fold change of degron read counts” value is 0.879.

In the case of B9, the “log2 fold change of degron read counts” value amounted to 0.00982.

As to B10, the “log2 fold change of degron read counts” value was 0.173.

As to B11, the “log2 fold change of degron read counts” value was -1.29.

In the case of B12, the “log2 fold change of degron read counts” value was -0.958.

For the sequence B13, the “log2 fold change of degron read counts” value is -1.4.

In the case of B14, the “log2 fold change of degron read counts” value was -1.51.

For B15, the “log2 fold change of degron read counts” value was determined as 0.285.

As to B16, the “log2 fold change of degron read counts” value is -2.17.

Consider B17, for which the “log2 fold change of degron read counts” value was -0.287.

Turning to B18, the “log2 fold change of degron read counts” value was -0.816.

With B19, the “log2 fold change of degron read counts” value is -1.06.

Regarding B20, the “log2 fold change of degron read counts” value is -1.48.

With B21, the “log2 fold change of degron read counts” value was -0.66.

For the sequence B22, the “log2 fold change of degron read counts” value was -0.312.

Consider B23, for which the “log2 fold change of degron read counts” value was -2.14.

On to B24, for which the “log2 fold change of degron read counts” value is -0.00663.

Regarding B25, the “log2 fold change of degron read counts” value was -0.128.

Consider B26, for which the “log2 fold change of degron read counts” value turned out to be 0.0893.

Regarding B27, the “log2 fold change of degron read counts” value was -0.0474.

Consider B28, for which the “log2 fold change of degron read counts” value was determined as 0.0294.

As for B29, the “log2 fold change of degron read counts” value is -0.21.

Turning to B30, the “log2 fold change of degron read counts” value was -2.35.

B31: the “log2 fold change of degron read counts” value is -0.849.

In the case of B32, the “log2 fold change of degron read counts” value is -0.583.

For B33, the “log2 fold change of degron read counts” value worked out at 0.169.

For the sequence B34, the “log2 fold change of degron read counts” value is -0.701.

With B35, the “log2 fold change of degron read counts” value was -0.606.

Take B36: the “log2 fold change of degron read counts” value was -1.22.

As to B37, the “log2 fold change of degron read counts” value was -0.256.

As to B38, the “log2 fold change of degron read counts” value was 0.71.

As for B39, the “log2 fold change of degron read counts” value worked out at 1.09.

As to B40, the “log2 fold change of degron read counts” value is 0.356.

Turning to B41, the “log2 fold change of degron read counts” value was -0.689.

For the sequence B42, the “log2 fold change of degron read counts” value came to 0.175.

As for B43, the “log2 fold change of degron read counts” value was -1.27.

On to B44, for which the “log2 fold change of degron read counts” value worked out at 1.34.

As for B45, the “log2 fold change of degron read counts” value came out at 1.53.

In the case of B46, the “log2 fold change of degron read counts” value is -0.378.

Consider B47, for which the “log2 fold change of degron read counts” value is -1.62.

Take B48: the “log2 fold change of degron read counts” value is -1.6.

Regarding B49, the “log2 fold change of degron read counts” value is -0.342.

Consider B50, for which the “log2 fold change of degron read counts” value was -0.295.

Values taken from the supplement of paper PMC12645437, “Orthogonal IMiD-Degron Pairs Induce Selective Protein Degradation in Cells” (ACS Chemical Biology, 2025).
